Measured values as given in article PMC7819943, “Rice protein-binding microarrays: a tool to detect cis-acting elements near promoter regions in rice”.
The list shows a part of the results.

What follows are sequences tested against T1, OsWOX13 (Oryza sativa, UniProt Q5QMM3 1-267) (assay: protein-binding microarray (RPBM); PBS, 2% BSA, 51.3 ng/ul salmon testes DNA, 50 uM zinc acetate, 200 nM TF, 25 C, 1 h; high values mean tight binding). Details: protein: recombinant; tags: N-terminal polyhistidine and DsRed monomer fusion (pET32a); label: CyDye5-dUTP incorporated in the synthesized complementary strand; 3' TTTTT single-stranded linker to array surface; dsDNA, one strand shown.
T1 sequence: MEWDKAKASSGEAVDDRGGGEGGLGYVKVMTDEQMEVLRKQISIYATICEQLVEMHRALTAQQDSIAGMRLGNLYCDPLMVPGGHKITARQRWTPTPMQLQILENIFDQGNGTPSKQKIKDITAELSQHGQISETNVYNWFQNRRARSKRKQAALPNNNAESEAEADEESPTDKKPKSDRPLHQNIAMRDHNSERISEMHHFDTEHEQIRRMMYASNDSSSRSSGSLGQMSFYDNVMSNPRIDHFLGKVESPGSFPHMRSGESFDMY
Summary of the method: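 The binding signal is fluorescence intensity per feature, in arbitrary units, read on an Axon 4000B scanner. Polyhistidine- and DsRed-tagged transcription factors (N-terminal fusions) from E. coli BL21-CodonPlus were purified on Ni–NTA and applied at 200 nM for 1 h at 25 °C to a double-stranded, BSA-blocked custom Agilent array in buffer with 50 µM zinc acetate.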

Row | Sequence | binding signal
1 | CTACCAGCAGGATGACATTAACCTGTATTTATTTCGTTTTCGGAGTCACCTAGTGCAG | 3360 fluorescence intensity (a.u.)
2 | AAATCGAACAAATTATTATTGACTTTGATCTGCCGCACTTCGGAGTCACCTAGTGCAG | 3190 fluorescence intensity (a.u.)
3 | CCCTAGACAGATCAGCTTTGGTGTCTTGGTGGTTGTTGTCCGGAGTCACCTAGTGCAG | 5440 fluorescence intensity (a.u.)
4 | TTTCGAATTTTAGTAATTTATAATTTGTATTTCTAATTAACGGAGTCACCTAGTGCAG | 6110 fluorescence intensity (a.u.)
5 | TTTATAAATTGCAAAAGGTTCCTATTTAGTTTGGGCCGAACGGAGTCACCTAGTGCAG | 5200 fluorescence intensity (a.u.)
6 | TTCCTAATTAGTTACTACCTCCGTTTCATATTATAAAACTCGGAGTCACCTAGTGCAG | 16800 fluorescence intensity (a.u.)
7 | ACATGGGCCGATAATTGGATCTGAACGATACTCTGAATATCGGAGTCACCTAGTGCAG | 4720 fluorescence intensity (a.u.)
8 | CATAAATCAATCGAGGCAGAAATATAGCCTGAGTTTCGCTCGGAGTCACCTAGTGCAG | 9310 fluorescence intensity (a.u.)
9 | ATTAACACTAATTTACATCATTCTCAGCCTGTTTTCACTTCGGAGTCACCTAGTGCAG | 19400 fluorescence intensity (a.u.)
10 | AAATCAATCTTGTCAAGTGATTGCATCAGGCTTATTTTCCCGGAGTCACCTAGTGCAG | 26700 fluorescence intensity (a.u.)
11 | GACAAGTAATTATCACTTTAAATGTTTGAACTGAAATTTACGGAGTCACCTAGTGCAG | 10800 fluorescence intensity (a.u.)
12 | CATCCAATCAATAGGTAATAGAGACAGAATCCCTACTCCACGGAGTCACCTAGTGCAG | 30300 fluorescence intensity (a.u.)
13 | TAATATTGTAAATTTCTTGATTATCCAACTATTAGCACAGCGGAGTCACCTAGTGCAG | 5360 fluorescence intensity (a.u.)
14 | ACCTGCATTAATATCACTAATCAGTACAATTAGTTAGGAGCGGAGTCACCTAGTGCAG | 5650 fluorescence intensity (a.u.)
15 | GACAGTAGATAGATCATAGATTAATGGATGATTTTGCGTACGGAGTCACCTAGTGCAG | 11000 fluorescence intensity (a.u.)
16 | TATATATATATATATATATATAGACACACACACGCCAATCCGGAGTCACCTAGTGCAG | 27500 fluorescence intensity (a.u.)
17 | AAAACTTTACATTATGTAATTAATTAAAATATTTGGTATTCGGAGTCACCTAGTGCAG | 13800 fluorescence intensity (a.u.)
18 | CTCAAATCTTTGATAGATGGCTTATTTGTATTGACTGGAACGGAGTCACCTAGTGCAG | 11700 fluorescence intensity (a.u.)
19 | ACTGACTGCTACGTCTCTGTCTACGTATACCCCAGCCTCCCGGAGTCACCTAGTGCAG | 15100 fluorescence intensity (a.u.)
20 | TCATAATTGGATGGCATTGTACTGTGATTTGTTTGTGTTGCGGAGTCACCTAGTGCAG | 49200 fluorescence intensity (a.u.)
21 | GCTGACAATTAAGCGTCAAAATGAACGTGCGTTGGTGTGTCGGAGTCACCTAGTGCAG | 6910 fluorescence intensity (a.u.)

Row | Sequence | binding signal
22 | GTATATACATATAATTGTAATATTACATATGTCACTTTATCGGAGTCACCTAGTGCAG | 3330 fluorescence intensity (a.u.)
23 | TTGCTTAATTTTGGTGAATGTCATCCAGGTGAGGATGCCCCGGAGTCACCTAGTGCAG | 11200 fluorescence intensity (a.u.)
24 | CAAAATAATATAATTTATAATCTATTTAAGCTCGATTGTGCGGAGTCACCTAGTGCAG | 25800 fluorescence intensity (a.u.)
25 | GTGAATGCATGCATGATTGATTGATCTTTTCTTTTGCGTCCGGAGTCACCTAGTGCAG | 46300 fluorescence intensity (a.u.)
26 | CAATATTCTTTGACAGCTTCGATTGACATCTCACCTTATGCGGAGTCACCTAGTGCAG | 9220 fluorescence intensity (a.u.)
27 | TTTTAATTAGGTAAGATAAGATGTGATGTGCACTTTAACTCGGAGTCACCTAGTGCAG | 12800 fluorescence intensity (a.u.)
28 | TTAAAATTAAATAACAACCATTTTCAATAGGAAAACGGTGCGGAGTCACCTAGTGCAG | 6340 fluorescence intensity (a.u.)
29 | ACATAAATTTGAGATGTTATTGTAGAATTCAAAACTGTGACGGAGTCACCTAGTGCAG | 5820 fluorescence intensity (a.u.)
30 | CGTGGTACAGTCAAATCACCTTTGACGATTGACTAGAAATCGGAGTCACCTAGTGCAG | 9670 fluorescence intensity (a.u.)
31 | ACGTGGGGAGGCTGCCTGCCGCGCGGTGAAGCTTCGGTCACGGAGTCACCTAGTGCAG | 21600 fluorescence intensity (a.u.)
32 | TACAAATTGACTACTAATTTCTCTAGTGGTGTATATTTATCGGAGTCACCTAGTGCAG | 33200 fluorescence intensity (a.u.)
33 | TGTGATTATAAAATTTTATGCACGACATTACTACATTTCCCGGAGTCACCTAGTGCAG | 36400 fluorescence intensity (a.u.)
34 | AATTAACTAGCTCGACTAATTAATAACGAAGTGATAGAGACGGAGTCACCTAGTGCAG | 17500 fluorescence intensity (a.u.)
35 | AGACAATCTTCTTGACTGATTTTCAATGTGGTAGATACATCGGAGTCACCTAGTGCAG | 12400 fluorescence intensity (a.u.)
36 | CATGATGGGCTTATTGGGCTGGATCAGATCGGATGTCCAGCGGAGTCACCTAGTGCAG | 10500 fluorescence intensity (a.u.)
37 | TTCTGATTGAGTTTATCAGGGCCAACTGCCAAACGGTCAGCGGAGTCACCTAGTGCAG | 38600 fluorescence intensity (a.u.)
38 | AAAATCAAGATTGATGTGGTTTCACCCCAACACAAGAAAACGGAGTCACCTAGTGCAG | 8050 fluorescence intensity (a.u.)
39 | TCTACTAATTTAAAGTTGCAGTGTTCCTCCTCCCTCCTACCGGAGTCACCTAGTGCAG | 10700 fluorescence intensity (a.u.)
40 | TATCAATCACAATAATCCAATCAACTTCCCAACCGAAATGCGGAGTCACCTAGTGCAG | 37500 fluorescence intensity (a.u.)
41 | ATTACATACTAATTACATATGTAAGTGAGGTGTAACTACTCGGAGTCACCTAGTGCAG | 5970 fluorescence intensity (a.u.)
42 | GGCGCTGCTTCGTGATTGCTTGTCTCGTGTCTGAATCACTCGGAGTCACCTAGTGCAG | 7190 fluorescence intensity (a.u.)
